Experimental data published in PubChem BioAssay AID1466 (National Center for Advancing Translational Sciences (NCATS), 2008).
The campaign covered roughly 200,000 compounds. About 10 (0.005%) were called active. Inconclusive means that the source gave no clear call. Such entries were picked first, then a sample of the others. Calls follow the shape of the dose curve; as a rule, active = well fitted inhibition curve with a large enough effect; inconclusive = small, poorly fitted or top-dose-only effect, or effect the other way, or another doubt; inactive = no such curve, though single readings can be large or run the other way. Potencies of inconclusive entries are doubtful fits and often do not repeat.

Target: Lysosomal alpha-glucosidase (Homo sapiens) (UniProt P10253)
Assay: qHTS Assay for Inhibitors of Human alpha-Glucosidase as a Potential Chaperone Treatment of Pompe Disease;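 as to activity change, negative = inhibition: plate controls were uninhibited enzyme wells for no effect and no-enzyme background for full effect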
Settings: purified human GAA, 4-MU-alpha-glucoside fluorescence; activity change, negative = inhibition: at 76.9 µM (top of the series) unless noted
Method in brief: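 Fluorescence at Ex 365/Em 440 nm from 4-methylumbelliferone reported enzyme activity after 20 min at room temperature. Reactions used 4 nM enzyme and 400 uM substrate at pH 5.0; curves fitted with the Hill equation.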
Potency is read from the fitted curve at half-maximal effect; tags tell the direction and shape of the fitted curve.

Potency, inconclusive:
O=C1OCC(c2ccccc2)=C1c1ccc(S(=O)(=O)N2CCOCC2)s1 50.1 µM [inhibitor, single point]
O=C(CSc1nnc2c(Cl)cc(Cl)cn12)NC1CCS(=O)(=O)C1 (configuration not stated) 56.2 µM [inhibitor, single point]
O=C(N=C1c2ccccc2CN1c1ccccc1)c1cccc([N+](=O)[O-])c1 56.2 µM [inhibitor, single point]
CCNc1nc(-c2ccc(OC(F)F)cc2)c(C)s1 6.31 µM [inhibitor, single point]
CCC(C)c1ccc(NC(=S)NCc2cccs2)cc1 (configuration not stated) 11.2 µM [inhibitor, full curve, poor fit]
COc1ccc(COc2cc(-c3cccc(OC)c3)nc3ccc(NC(=O)c4cccnc4)cc23)cc1 0.251 µM [inhibitor, full curve, poor fit]
CC1=CC(c2ccc(Cl)cc2)n2nc(N3C(=O)CCC3=O)nc2N1 (configuration not stated) 28.2 µM [activator, single point]
COc1ccc(NC(=O)COC(=O)c2ccc(Cl)c(S(N)(=O)=O)c2)c([N+](=O)[O-])c1 2 µM [inhibitor, partial curve, poor fit]
COc1ccc(NC(=O)CC(c2ccc(F)cc2)c2ccc(OC)cc2)cc1 (configuration not stated) 50.1 µM [inhibitor, single point]
CCOc1cc(CNc2ccc(N(C)C)cc2)cc(Br)c1OCC(=O)NC(C)(C)C 0.178 µM [inhibitor, full curve, poor fit]
Cc1ccccc1Oc1cc(NC(=O)Cn2cnc([N+](=O)[O-])c2)cc([N+](=O)[O-])c1 22.4 µM [inhibitor, partial curve, poor fit]
Cc1cccc(Nc2nc(-c3ccccc3)c(C(=O)Nc3cccnc3)s2)c1 28.2 µM [activator, single point]

Potency, inactive:
CC(C)C/C(O)=C/c1nc2cc(Cl)ccc2oc1=O

Activity change, negative = inhibition, inconclusive:
CC1(C)Cc2c(C#N)c(SCC(=O)c3ccccc3)nc(N3CCOCC3)c2CS1 -15.5% [inhibitor]
CCN(CC)CC#CC(O)(c1ccccc1)c1ccccc1 17% [activator]
O=C(NCc1ccco1)C(c1ccc(F)cc1)N(C(=O)Cc1cccs1)c1cccnc1 (configuration not stated) 16.2% [activator]
CC1=NCCN1S(=O)(=O)c1c(C(C)C)cc(C(C)C)cc1C(C)C 14.5% [activator]
